Source: a collection of fitness landscapes (doi:10.1016/j.celrep.2020.107928)
Over roughly 81,000 sequences, “one-hybrid fitness for binding NBS DNA” has its median near -0.1; the highest 2% begin near 0.36. Some of the results follow.

B1: Caulobacter ParB omega fusion; a variant is named by its letters at X, in order, B8GW30 (parent)
chain: MESVVVGEPGMSEGRRGLGRGLSALLGEVDAAPAQAPGEQLGGSREAPIEILQRNPDQPRRTFREEDLEDLSNSIREKGVLQPILVRPSPDTAGEYQIVAGERAWRAAQRAGLKTVPIMVRELDDLAVLEIGIIENVQRADLNVLEEALSYKVLMEKFERTQENIAQTIGKSXSHVANXMRLLXLPDEVQSYLVSGELTAXHARAIAAAADPVALAKQIIEGGLSVRETEALARKAPNLSAGKSKGGRPPRVKDTDTQALESDLSSVLGLDVSIDHRGSTGTLTITYATLEQLDDLCNRLTRGI

Variants of: B1
Test: one-hybrid fitness for binding NBS DNA (the Noc-binding site; scaled: cognate 1, non-cognate 0); higher = stronger binding
Details: with NBS DNA site
Method in brief: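 The reporter was HIS3, with the binding site 19 bp from the promoter, in E. coli USO used for bacterial one-hybrid selection of Caulobacter ParB libraries with four specificity codons randomised. Growth was on M9 lacking histidine, with 0.1 mM IPTG and 5 mM 3-AT, for 48 hours at 37°C. Illumina sequencing covered plasmids before and after selection; three replicate libraries were pooled and variants with under 10 reads dropped. A fitness score is the log change in variant-to-wild-type read ratio, rescaled to the cognate and non-cognate references.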

Variant | one-hybrid fitness for binding NBS DNA
FARC | ≤ 0.2
PIMQ | ≤ 0.2
DPPT | ≤ 0.2
YSYA | ≤ 0.2
RARE | ≤ 0.2
GKNY | ≤ 0.2
MKLR | ≤ 0.2
NRNP | ≤ 0.2
IPSN | ≤ 0.2
PATT | ≤ 0.2
QMTS | 0.403
HHHV | ≤ 0.2
MLDR | ≤ 0.2
DSWT | ≤ 0.2
WATV | ≤ 0.2
ALAF | ≤ 0.2
QKWD | 0.405
VIRY | ≤ 0.2
VMPA | ≤ 0.2
PAPV | ≤ 0.2
VVPS | ≤ 0.2
RQYP | ≤ 0.2
SRKS | ≤ 0.2
IVIG | ≤ 0.2
QQHY | 0.259

Variant | one-hybrid fitness for binding NBS DNA
SYLS | ≤ 0.2
MYPF | ≤ 0.2
QGTQ | ≤ 0.2
DRML | ≤ 0.2
DDGP | ≤ 0.2
KCLS | ≤ 0.2
CKAK | ≤ 0.2
RYKR | 0.744
PFNN | ≤ 0.2
RQHG | ≤ 0.2
TQNA | ≤ 0.2
ESGF | ≤ 0.2
RMCT | 0.366
LRFM | ≤ 0.2
NHTF | ≤ 0.2
LPSP | ≤ 0.2
QHPW | ≤ 0.2
VGFC | ≤ 0.2
DAVG | ≤ 0.2
DDGC | ≤ 0.2
CWLS | ≤ 0.2
RYMG | ≤ 0.2
ADVL | ≤ 0.2
TLVV | ≤ 0.2
NSHV | ≤ 0.2

Variant | one-hybrid fitness for binding NBS DNA
NFLD | ≤ 0.2
HISI | ≤ 0.2
DMAL | ≤ 0.2
RCQC | ≤ 0.2
GLRC | ≤ 0.2
HHEI | ≤ 0.2
RWQY | ≤ 0.2
QKTR | 0.646
WRQS | ≤ 0.2
NNQR | ≤ 0.2
YAYG | ≤ 0.2
HFCT | ≤ 0.2
QWWC | ≤ 0.2
VPYC | ≤ 0.2
RCDE | ≤ 0.2
THAE | ≤ 0.2
RVAM | ≤ 0.2
QIEK | ≤ 0.2
VLNC | ≤ 0.2
AVVG | ≤ 0.2
PNSR | ≤ 0.2
FPSI | ≤ 0.2
LSFR | ≤ 0.2
AFYR | ≤ 0.2
TYKT | ≤ 0.2

Variant | one-hybrid fitness for binding NBS DNA
HQDK | ≤ 0.2
ADTT | ≤ 0.2
WHVF | ≤ 0.2
ALLL | ≤ 0.2
IGDM | ≤ 0.2
TNPS | ≤ 0.2
QYFR | 0.366
IYVL | ≤ 0.2
ESIK | ≤ 0.2
STAS | ≤ 0.2
SDLM | ≤ 0.2
FRFS | ≤ 0.2
KAMT | ≤ 0.2
RLYK | ≤ 0.2
ECSD | ≤ 0.2
RVWR | 0.248
TPVI | ≤ 0.2
VGMS | ≤ 0.2
AYVG | ≤ 0.2
RGKI | ≤ 0.2
MWAL | ≤ 0.2
RNGC | ≤ 0.2
